Measurements published in the supplement of paper PMC12067230.
This is a noisy data set.

experiment: amyloid nucleation score relative to library mode (yeast Sup35 reporter selection) (log enrichment difference); higher = more amyloid nucleation; sequences are the first 22 residues of the Bri2 peptide extended by up to 12 random residues; settings: random library (experiment): 1;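 active = nucleation score significantly above 0 at FDR 0.05; inactive = not significantly above 0 or absent from output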
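Also: [psi-pin-] Saccharomyces cerevisiae expressing SupN fusions, induced by 100 µM Cu2SO4, selected 7 d at 30 °C without adenine and uracil, scored by deep sequencing of output versus input.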

Sequence | amyloid nucleation score
EASNCFAIRHFENKFAVETLICDCWNVFCMKIRD | 3.73
EASNCFAIRHFENKFAVETLICEGLYGAVCSLGR | inactive
EASNCFAIRHFENKFAVETLICLLSGPANRRFSC | inactive
EASNCFAIRHFENKFAVETLICATSCPRLLLAI | inactive
EASNCFAIRHFENKFAVETLICETDWMGMGGSSE | inactive
EASNCFAIRHFENKFAVETLICGYAGTSWCAKSP | 0.288
EASNCFAIRHFENKFAVETLICAWMYLCA | inactive
EASNCFAIRHFENKFAVETLICTERGSWQVHSPS | inactive
EASNCFAIRHFENKFAVETLICDGYVSWHLKKCG | inactive
EASNCFAIRHFENKFAVETLICWSTPPWFVPIVV | -0.372
EASNCFAIRHFENKFAVETLICRCAEGPVGADDL | 5.66
EASNCFAIRHFENKFAVETLICVSVWPEQLGEGR | inactive
EASNCFAIRHFENKFAVETLICALNYGLYNHYFV | inactive
EASNCFAIRHFENKFAVETLICLEVSSADFCVVR | inactive
EASNCFAIRHFENKFAVETLICGRPMGAGSRMSE | inactive
EASNCFAIRHFENKFAVETLICLVVGSCGKNSFP | 4.47
EASNCFAIRHFENKFAVETLICVSAFTVNSRFRC | inactive
EASNCFAIRHFENKFAVETLICFILTVYQYLADM | inactive
EASNCFAIRHFENKFAVETLICASCSQVVLCLLV | 3.15
EASNCFAIRHFENKFAVETLICATTRPEVRMVGD | inactive
EASNCFAIRHFENKFAVETLICGIMKGSAEYSGF | -0.0664
EASNCFAIRHFENKFAVETLICGSGRWTRNYYRG | 1.39
EASNCFAIRHFENKFAVETLICGYTVFYTKKFDE | 6.6
EASNCFAIRHFENKFAVETLICRNVNVFITWSSQ | 4.81
EASNCFAIRHFENKFAVETLICRFVWDYVTSELS | inactive
EASNCFAIRHFENKFAVETLICWSKDVRGDTDHG | inactive
EASNCFAIRHFENKFAVETLICGQS | inactive
EASNCFAIRHFENKFAVETLICCLYCTCVDKFGY | 5.44

Sequence | amyloid nucleation score
EASNCFAIRHFENKFAVETLICHAYLTVA | inactive
EASNCFAIRHFENKFAVETLICAGRDISR | 4.64
EASNCFAIRHFENKFAVETLICRVHPQSTRGRLG | 0.655
EASNCFAIRHFENKFAVETLICIRHACMVTPWEY | inactive
EASNCFAIRHFENKFAVETLICVFGVEGFWYQSW | 1.13
EASNCFAIRHFENKFAVETLICEWTEDYCRWVE | -0.0385
EASNCFAIRHFENKFAVETLICWAPRGMTGIFDC | 4.41
EASNCFAIRHFENKFAVETLICYGSQDASGRTGW | 5.04
EASNCFAIRHFENKFAVETLICGDV | inactive
EASNCFAIRHFENKFAVETLICCIYCRSSCGSGG | 4.8
EASNCFAIRHFENKFAVETLICVVRWRGYGGLWR | inactive
EASNCFAIRHFENKFAVETLICGTQF | inactive
EASNCFAIRHFENKFAVETLICATRRAYVSHTRC | inactive
EASNCFAIRHFENKFAVETLICARVSKSTSWCGD | 4.13
EASNCFAIRHFENKFAVETLICVMWESCCTGGDW | 8.19
EASNCFAIRHFENKFAVETLICTLIVVSGLIDSL | 0.498
EASNCFAIRHFENKFAVETLICRPYGVSTEVRGA | 4.92
EASNCFAIRHFENKFAVETLICLRIVSCASMPGN | 0.358
EASNCFAIRHFENKFAVETLICAHGWGRAWRR | 1.5
EASNCFAIRHFENKFAVETLICVCFNGSSTHYPT | 8.87
EASNCFAIRHFENKFAVETLICNNRVHC | inactive
EASNCFAIRHFENKFAVETLICFRIGCTVVYWAV | inactive
EASNCFAIRHFENKFAVETLICRNGDMMFVPFPG | inactive
EASNCFAIRHFENKFAVETLICCPSVRGGLGPSA | inactive
EASNCFAIRHFENKFAVETLICVGYCLLRGVGQM | inactive
EASNCFAIRHFENKFAVETLICARGRQTSVLGFR | inactive
EASNCFAIRHFENKFAVETLICQMATVWALDQVK | inactive

same assay, conditions: random library (experiment): 2

Sequence | amyloid nucleation score
EASNCFAIRHFENKFAVETLICTFFNYQYVLLGC | inactive
EASNCFAIRHFENKFAVETLICLKRSWTTCDWFG | 0.883
EASNCFAIRHFENKFAVETLICMKSIVRRCRG | inactive
EASNCFAIRHFENKFAVETLICVLDYGPGNNHVD | 2.99
EASNCFAIRHFENKFAVETLICYLYRSKPPLIIS | inactive
EASNCFAIRHFENKFAVETLICGFGHVASKHWFA | 2.39
EASNCFAIRHFENKFAVETLICHTVCKKTVMHCW | inactive
EASNCFAIRHFENKFAVETLICFIHYSFHFANDC | -0.148
EASNCFAIRHFENKFAVETLICTAKLIGASGKGG | 4.74
EASNCFAIRHFENKFAVETLICLMFSIVVLVMQW | inactive
EASNCFAIRHFENKFAVETLICQFCLFNVVELSV | 6.07
EASNCFAIRHFENKFAVETLICGPGLNESAMPCV | inactive
EASNCFAIRHFENKFAVETLICETYSSNMFRRC | -0.513
EASNCFAIRHFENKFAVETLICETVTRW | inactive
EASNCFAIRHFENKFAVETLICWRLLGVRFGAGT | -0.215
EASNCFAIRHFENKFAVETLICFTPLYERVYVVR | inactive
EASNCFAIRHFENKFAVETLICFVGNWRVRVKGV | inactive
EASNCFAIRHFENKFAVETLICWCYV | -0.392
EASNCFAIRHFENKFAVETLICLIHEARRRGSRE | 4.66

Sequence | amyloid nucleation score
EASNCFAIRHFENKFAVETLICGSCDDVVHSPTR | inactive
EASNCFAIRHFENKFAVETLICVFVDCSIQCFGD | 6.89
EASNCFAIRHFENKFAVETLICAPLVSSQSVYNI | inactive
EASNCFAIRHFENKFAVETLICMNGYIHSVCFLR | inactive
EASNCFAIRHFENKFAVETLICVIMWHFRDNE | -0.231
EASNCFAIRHFENKFAVETLICAAFLQLWEGIC | inactive
EASNCFAIRHFENKFAVETLICLVVCFIMWGVTW | 1.58
EASNCFAIRHFENKFAVETLICIISLIVLRWEYV | inactive
EASNCFAIRHFENKFAVETLICTQPLFLPDFYSW | 5.57
EASNCFAIRHFENKFAVETLICNGLRGARSDVGL | -0.247
EASNCFAIRHFENKFAVETLICAQPTCFIQIVGS | 4.23
EASNCFAIRHFENKFAVETLICGPFKNSKNRRVL | inactive
EASNCFAIRHFENKFAVETLICLLTSSVSIGVVV | inactive
EASNCFAIRHFENKFAVETLICYWSP | 5.67
EASNCFAIRHFENKFAVETLICLSLRSMTVYRLP | inactive
EASNCFAIRHFENKFAVETLICMWYPRRATWN | -0.0296
EASNCFAIRHFENKFAVETLICFIRCVDK | inactive
EASNCFAIRHFENKFAVETLICFLNYCLFSGRGG | -0.688
EASNCFAIRHFENKFAVETLICVVQISNGHVNNG | 9.52

same assay, conditions: random library (experiment): 3

Sequence | amyloid nucleation score
EASNCFAIRHFENKFAVETLICPMLNSFSDIEEG | inactive
EASNCFAIRHFENKFAVETLICMDVLLP | inactive
EASNCFAIRHFENKFAVETLICGEGYPKSECPGG | inactive
EASNCFAIRHFENKFAVETLICKSPSSVNTKLMC | inactive
EASNCFAIRHFENKFAVETLICIGDCWKKIWCLF | inactive
EASNCFAIRHFENKFAVETLICQCPV | inactive
EASNCFAIRHFENKFAVETLICVSDIWIRPQVVL | inactive
EASNCFAIRHFENKFAVETLICLDCG | 5.84
EASNCFAIRHFENKFAVETLICTYWIRRVSWLRG | 0.0651
EASNCFAIRHFENKFAVETLICLSAKALRVFCAR | inactive
EASNCFAIRHFENKFAVETLICWYASRLAQGVHV | inactive
EASNCFAIRHFENKFAVETLICGGQTSGYSRRDG | 0.475
EASNCFAIRHFENKFAVETLICILALMTTRRGLG | inactive
EASNCFAIRHFENKFAVETLICCAHVCGFDYRVL | 2.29
EASNCFAIRHFENKFAVETLICGLCRHGLWLVCW | inactive
EASNCFAIRHFENKFAVETLICRPRGRRQTAFVR | inactive
EASNCFAIRHFENKFAVETLICHFM | 7.47
EASNCFAIRHFENKFAVETLICLVGSGPGSAWQL | 6.15
EASNCFAIRHFENKFAVETLICDVSYIHPVGSER | inactive
EASNCFAIRHFENKFAVETLICPRMGLNHWVCFF | inactive
EASNCFAIRHFENKFAVETLICCKKGRIMRCLAA | inactive
EASNCFAIRHFENKFAVETLICLTDLVACRGVVA | inactive
EASNCFAIRHFENKFAVETLICRFSEKGWKNYKP | 1.07
EASNCFAIRHFENKFAVETLICGSVLGQSNAWNE | 5.11
EASNCFAIRHFENKFAVETLICGLLLAVALVWPE | inactive
EASNCFAIRHFENKFAVETLICPVLICMASHCRC | 7.5
